Measurements reported in patent US10149841B2, “Compound of 3-hydroxyl pyridine, preparation method thereof and pharmaceutical use thereof” (SHENYANG SUNSHINE PHARMACEUTICAL CO. LTD., priority 2015, dated 2018).
The name of at least one read-out is uncertain.

Tested on: hepatoma cells Hep3B
Experiment: Promotion of erythropoietin expression in hepatoma cells Hep3B in vitro (EPO ELISA)
Assay type: cell-based, human
Conditions: 10 μM test substance, 24 hours, ratio of EPO expression to that of positive control AKB6548

Row | SMILES | EPO level/AKB6548 EPO level (10 μM)
1 | O=C(O)CNC(=O)c1ncc(Oc2ccccc2)cc1O [Compound 1, 2-(3-hydroxy-5-phenoxy-2-pyridylformamido) acetic acid] | 0.5
2 | O=C(O)CNC(=O)c1ncc(Oc2ccccc2F)cc1O [Compound 2] | 0.3
3 | CCCCCc1ccc(Oc2cnc(C(=O)NCC(=O)O)c(O)c2)cc1 [Compound 3] | 0.8
4 | Cc1cc(Oc2cnc(C(=O)NCC(=O)O)c(O)c2)ccc1Cl [Compound 4] | 1.5
5 | Cc1cccc(Oc2cnc(C(=O)NCC(=O)O)c(O)c2)c1C [Compound 5, 2-(5-(2,3-dimethylphenoxy)-3-hydroxypyridine-2-formamido) acetic acid] | 1.3
6 | Cc1ccc(C)c(Oc2cnc(C(=O)NCC(=O)O)c(O)c2)c1 [Compound 6] | 0.6
7 | Nc1cccc(Oc2cnc(C(=O)NCC(=O)O)c(O)c2)c1 [Compound 7] | 0.2
8 | O=C(O)CNC(=O)c1ncc(Oc2ccc3ccccc3c2)cc1O [Compound 8, 2-(3-hydroxy-5-(naphthalen-2-oxo)pyridine-2-formamido) acetic acid] | 1.5
9 | O=C(O)CNC(=O)c1ncc(Oc2cccc(F)c2F)cc1O [Compound 9, 2-(5-(2,3-difluorophenoxy)-3-hydroxypyridine-2-formamido) acetic acid] | 1.5
10 | O=C(O)CNC(=O)c1ncc(Oc2ccccc2O)cc1O [Compound 10] | 0.6
11 | O=C(O)CNC(=O)c1ncc(Oc2ccc(Cl)cc2)cc1O [Compound 12] | 0.8
12 | O=C(O)CNC(=O)c1ncc(Oc2ccccc2Cl)cc1O [Compound 13] | 0.5
13 | CC(C)(C)c1cccc(Oc2cnc(C(=O)NCC(=O)O)c(O)c2)c1 [Compound 14] | 1.7
14 | O=C(O)CNC(=O)c1ncc(Oc2cccc(Cl)c2)cc1O [Compound 16] | 1.1
15 | CCc1ccccc1Oc1cnc(C(=O)NCC(=O)O)c(O)c1 [Compound 17] | 1.2
16 | Cc1cc(C)c(C)c(Oc2cnc(C(=O)NCC(=O)O)c(O)c2)c1 [Compound 18] | 1.3
17 | Cc1ccc(Oc2cnc(C(=O)NCC(=O)O)c(O)c2)c(C)c1 [Compound 19, 2-(5-(2,4-dimethylphenoxy)-3-hydroxypyridine-2-formamido) acetic acid] | 1.3
18 | Cc1ccc(Oc2cnc(C(=O)NCC(=O)O)c(O)c2)cc1C [Compound 20] | 1.4
19 | CC(C)c1ccc(Oc2cnc(C(=O)NCC(=O)O)c(O)c2)cc1 [Compound 21] | 1.5
20 | Cc1ccc(Oc2cnc(C(=O)NCCCCC(=O)O)c(O)c2)cc1 [Compound 25] | 0.2
21 | O=C(O)COC(=O)c1ncc(Oc2cccc(C(F)(F)F)c2)cc1O [Compound 26] | 0.6
22 | CC(C)(NC(=O)c1ncc(Oc2ccccc2)cc1O)C(=O)O [Compound 28] | 0.1
23 | O=C(O)CCCNC(=O)c1ncc(Oc2ccccc2)cc1O [Compound 29] | 0.2
24 | Cc1cccc(Oc2cnc(C(=O)NCC(=O)O)c(O)c2)c1 [Compound 30] | 1.0
25 | Cc1ccc(Oc2cnc(C(=O)NC(C)(C)C(=O)O)c(O)c2)cc1 [Compound 31] | 0.1
26 | CCCc1ccc(Oc2cnc(C(=O)NCC(=O)O)c(O)c2)cc1 [Compound 32] | 0.8
27 | O=C(O)CNC(=O)c1ncc(Oc2ccc3c(c2)OCCO3)cc1O [Compound 33] | 0.2
28 | O=C(O)CNC(=O)c1ncc(Oc2ccc(F)c(F)c2)cc1O [Compound 34] | 0.5
29 | O=C(O)CCCCNC(=O)c1ncc(Oc2ccccc2)cc1O [Compound 35] | 0.2
